The IC50 is the midpoint of a concentration-inhibition curve.

The target in this experiment is human Cav2.2 (Homo sapiens, UniProt Q00975). Description: In vitro assessment of calcium channel activity using FLIPR (Ca2+ influx in IMR32 cells). It is filed as cell-based. As to conditions: IMR32 cells endogenously expressing human Cav2.2; Calcium 4 dye, 60 minute pre-incubation, 2 μM nifedipine, depolarized with 80 mM KCl; average of at least two runs unless marked *.
With `O=C(N[C@H]1C[C@H]2CN(S(=O)(=O)c3ccc(C(F)(F)F)cc3)CCN2C1)c1ccc(F)c(F)c1` [Example 14, 3,4-difluoro-N-[(7S,8aS)-2-{[4-(trifluoromethyl)phenyl]sulfonyl}octahydropyrrolo[1,2-a]pyrazin-7-yl]benzamide], the 50% inhibitory concentration (IC50) is 1930 nM. For the compound `O=S(=O)(c1ccc(C(F)(F)F)cc1)N1CCN2C[C@H](Oc3ccnc(C4CC4)n3)C[C@H]2C1` [Example 167, (7R,8aS)-7-[(2-cyclopropylpyrimidin-4-yl)oxy]-2-{[4-(trifluoromethyl)-phenyl]sulfonyl}octahydropyrrolo[1,2-a]pyrazine], the IC50 is 4370 nM.

Consider `Cc1ccc(S(=O)(=O)N2CCN3C[C@H](Oc4cnc(C5CC5)cn4)C[C@H]3C2)cc1` [Example 110, (7R,8aS)-7-[(5-cyclopropylpyrazin-2-yl)oxy]-2-[(4-methylphenyl)sulfonyl]-octahydropyrrolo[1,2-a]pyrazine], for which the IC50 turned out to be 4900 nM. Consider `O=C1[C@@H](Oc2cnc(C3CC3)cn2)C[C@@H]2CN(S(=O)(=O)c3cccc(C(F)(F)F)c3)CCN12` [Example 208, (7S,8aR)-7-[(5-cyclopropylpyrazin-2-yl)oxy]-2-{[3-(trifluoromethyl)-phenyl]sulfonyl}hexahydropyrrolo[1,2-a]pyrazin-6(2H)-one], for which the IC50 was found to be 1560 nM. Turning to `O=S(=O)(c1cc(Br)cc(C(F)(F)F)c1)N1CCN2C[C@H](Oc3cnc(C4CC4)cn3)C[C@H]2C1` [Example 112, (7R,8aS)-2-{[3-bromo-5-(trifluoromethyl)phenyl]sulfonyl}-7-[(5-cyclopropylpyrazin-2-yl)oxy]octahydropyrrolo[1,2-a]pyrazine], the half-inhibitory concentration (IC50) was 5890 nM. `O=C1C(Oc2cnc(C3CC3)cn2)C[C@@H]2CN(S(=O)(=O)c3cccc(C(F)(F)F)c3)CCN12` (stereo partly drawn) [Example 222, (8aR)-7-[(5-cyclopropylpyrazin-2-yl)oxy]-2-{[3-(trifluoromethyl)-phenyl]sulfonyl}hexahydropyrrolo[1,2-a]pyrazin-6(2H)-one]: the IC50 worked out at 1250 nM.

With `N#Cc1ccc(C(F)(F)F)cc1S(=O)(=O)N1CCN2C[C@H](Oc3cnc(C4CC4)cn3)C[C@H]2C1` [Example 201, 2-{[(7R,8aS)-7-[(5-cyclopropylpyrazin-2-yl)oxy]hexahydropyrrolo[1,2-a]-pyrazin-2(1H)-yl]sulfonyl}-4-(trifluoromethyl)benzonitrile], the IC50 was determined as 760 nM.

For the compound `Cc1ccccc1S(=O)(=O)N1CCN2C[C@H](Oc3cnc(C4CC4)cn3)C[C@H]2C1` [Example 158, (7R,8aS)-7-[(5-cyclopropylpyrazin-2-yl)oxy]-2-[(2-methylphenyl)-sulfonyl]octahydropyrrolo[1,2-a]pyrazine], the IC50 was found to be 2580 nM.

As for `N#Cc1cc(S(=O)(=O)N2CCN3C[C@H](Oc4cnc(C5CC5)cn4)C[C@H]3C2)ccc1F` [Example 181, 5-{[(7R,8aS)-7-[(5-cyclopropylpyrazin-2-yl)oxy]hexahydropyrrolo[1,2-a]-pyrazin-2(1H)-yl]sulfonyl}-2-fluorobenzonitrile], the IC50 is greater than 30000 nM. With `O=C(N[C@H]1C[C@H]2CN(S(=O)(=O)c3ccc(Cl)cc3Cl)CCN2C1)c1ccc(F)cc1F` [Example 12, N-{(7S,8aS)-2-[(2,4-dichlorophenyl)sulfonyl]octahydropyrrolo[1,2-a]pyrazin-7-yl}-2,4-difluorobenzamide], the 50% inhibitory concentration (IC50) stood at 2530 nM. For `O=S(=O)(c1cccc(N2CCCCC2)n1)N1CCN2C[C@H](Oc3cnc(C4CC4)cn3)C[C@H]2C1` [Example 60, (7R,8aS)-7-[(5-cyclopropylpyrazin-2-yl)oxy]-2-{[6-(piperidin-1-yl)pyridin-2-yl]sulfonyl}octahydropyrrolo[1,2-a]pyrazine] the value was 480 nM; for `O=C(N[C@H]1C[C@H]2CN(S(=O)(=O)c3ccc(C(F)(F)F)cc3Cl)CCN2C1)c1ccc(F)cc1` [Example 3, N-[(7S,8aS)-2-{[2-chloro-4-(trifluoromethyl)phenyl]sulfonyl}octahydropyrrolo[1,2-a]pyrazin-7-yl]-4-fluorobenzamide], 1010 nM. Regarding `O=S(=O)(c1cc(C(F)(F)F)ccn1)N1CCN2C[C@H](Oc3cnc(C4CC4)cn3)C[C@H]2C1` [Example 63, (7R,8aS)-7-[(5-cyclopropylpyrazin-2-yl)oxy]-2-{[4-(trifluoromethyl)pyridin-2-yl]sulfonyl}octahydropyrrolo[1,2-a]pyrazine], the half-inhibitory concentration (IC50) came out at 1380 nM. Turning to `O=S(=O)(c1cccc2ccccc12)N1CCN2C[C@H](Oc3cnc(C4CC4)cn3)C[C@H]2C1` [Example 155, (7R,8aS)-7-[(5-cyclopropylpyrazin-2-yl)oxy]-2-(1-naphthylsulfonyl)-octahydropyrrolo[1,2-a]pyrazine], the concentration for half-maximal inhibition (IC50) was 1040 nM. Take `O=S(=O)(c1cccc(C(F)(F)F)c1)N1CCN2CC[C@@H](Oc3ccc(Cl)cn3)[C@H]2C1` (relative stereo) [Example 36, (8R*,8aR*)-8-[(5-chloropyridin-2-yl)oxy]-2-{[3-(trifluoromethyl)phenyl]-sulfonyl}octahydropyrrolo[1,2-a]pyrazine]: the IC50 came to 850 nM.

Take `O=S(=O)(CCC(F)(F)F)N1CCN2C[C@H](Oc3cnc(C4CC4)cn3)C[C@H]2C1` [Example 189, (7R,8aS)-7-[(5-cyclopropylpyrazin-2-yl)oxy]-2-[(3,3,3-trifluoropropyl)-sulfonyl]octahydropyrrolo[1,2-a]pyrazine]: the concentration for half-maximal inhibition (IC50) is greater than 30000 nM. As to `CC(C)c1cnc(O[C@@H]2C[C@H]3CN(S(=O)(=O)c4cccc(C(C)(C)C)n4)CCN3C2)cn1` [Example 203, (7R,8aS)-2-[(6-tert-butylpyridin-2-yl)sulfonyl]-7-[(5-isopropylpyrazin-2-yl)-oxy]octahydropyrrolo[1,2-a]pyrazine], the half-inhibitory concentration (IC50) came to 130 nM. For `O=C1[C@H](C(O)c2cccc(F)c2)C[C@H]2CN(S(=O)(=O)c3cccc(C(F)(F)F)c3)CCN12` (stereo partly drawn) [Example 215, (7S,8aS)-7-[(3-fluorophenyl)(hydroxy)methyl]-2-{[3-(trifluoromethyl)-phenyl]sulfonyl}hexahydropyrrolo[1,2-a]pyrazin-6(2H)-one] the value was 1110 nM.

Regarding `O=S(=O)(c1cccc(F)c1)N1CCN2C[C@H](Oc3cnc(C4CC4)cn3)C[C@H]2C1` [Example 144, (7R,8aS)-7-[(5-cyclopropylpyrazin-2-yl)oxy]-2-[(3-fluorophenyl)sulfonyl]-octahydropyrrolo[1,2-a]pyrazine], the half-inhibitory concentration (IC50) came out at 3850 nM. For `N#Cc1ccc(S(=O)(=O)N2CCN3C[C@H](Oc4cnc(C5CC5)cn4)C[C@H]3C2)cc1C(F)(F)F` [Example 65, 4-{[(7R,8aS)-7-[(5-cyclopropylpyrazin-2-yl)oxy]hexahydropyrrolo[1,2-a]-pyrazin-2(1H)-yl]sulfonyl}-2-(trifluoromethyl)benzonitrile] the value was 1650 nM; for `Cc1cc(F)ccc1S(=O)(=O)N1CCN2C[C@H](Oc3cnc(C4CC4)cn3)C[C@H]2C1` [Example 129, (7R,8aS)-7-[(5-cyclopropylpyrazin-2-yl)oxy]-2-[(4-fluoro-2-methylphenyl)-sulfonyl]octahydropyrrolo[1,2-a]pyrazine], 890 nM; for `O=S(=O)(c1ccc(OC(F)(F)F)cc1)N1CCN2C[C@H](Oc3cnc(C4CC4)cn3)C[C@H]2C1` [Example 28, (7R,8aS)-7-[(5-cyclopropylpyrazin-2-yl)oxy]-2-{[4-(trifluoromethoxy)-phenyl]sulfonyl}octahydropyrrolo[1,2-a]pyrazine], 1150 nM.

As for `O=S(=O)(c1cc(C(F)(F)F)ccc1F)N1CCN2C[C@H](Oc3cnc(C4CC4)cn3)C[C@H]2C1` [Example 32, (7R,8aS)-7-[(5-cyclopropylpyrazin-2-yl)oxy]-2-{[2-fluoro-5-(trifluoromethyl)phenyl]sulfonyl}octahydropyrrolo[1,2-a]pyrazine], the half-maximal inhibitory concentration (IC50) came to 1280 nM. In the case of `O=S(=O)(c1cccc(C(F)(F)F)c1)N1CCN2C[C@H](Oc3cncc(C(F)(F)F)c3)C[C@H]2C1` [Example 231, (7R,8aS)-2-{[3-(trifluoromethyl)phenyl]sulfonyl}-7-{[5-(trifluoromethyl)-pyridin-3-yl]oxy}octahydropyrrolo[1,2-a]pyrazine], the half-inhibitory concentration (IC50) amounted to 383 nM. For `O=S(=O)(c1cccc(C(F)(F)F)c1)N1CCN2C[C@H](Oc3ccc(C4CC4)nc3)C[C@H]2C1` [Example 88, (7R,8aS)-7-[(6-cyclopropylpyridin-3-yl)oxy]-2-{[3-(trifluoromethyl)phenyl]-sulfonyl}octahydropyrrolo[1,2-a]pyrazine] the value was 1100 nM; for `O=S(=O)(CCCC(F)(F)F)N1CCN2C[C@H](Oc3cnc(C4CC4)cn3)C[C@H]2C1` [Example 219, (7R,8aS)-7-[(5-cyclopropylpyrazin-2-yl)oxy]-2-[(4,4,4-trifluorobutyl)-sulfonyl]octahydropyrrolo[1,2-a]pyrazine], greater than 30000 nM. For `O=S(=O)(c1cccc(-c2ccccc2)c1)N1CCN2C[C@H](Oc3cnc(C4CC4)cn3)C[C@H]2C1` [Example 103, (7R,8aS)-2-(biphenyl-3-ylsulfonyl)-7-[(5-cyclopropylpyrazin-2-yl)oxy]-octahydropyrrolo[1,2-a]pyrazine] the value was 2290 nM.

As for `O=S(=O)(c1cccc(C(F)(F)F)c1)N1CCN2C[C@H](Oc3ccc(C(F)(F)F)nc3)C[C@H]2C1` [Example 84, (7R,8aS)-2-{[3-(trifluoromethyl)phenyl]sulfonyl}-7-{[6-(trifluoromethyl)-pyridin-3-yl]oxy}octahydropyrrolo[1,2-a]pyrazine], the 50% inhibitory concentration (IC50) is 400 nM. As to `O=S(=O)(c1ccc(C(F)(F)F)cc1)N1CCN2C[C@@H](Oc3cnc(C4CC4)cn3)C[C@@H]2C1` [Example 54, (7S,8aR)-7-[(5-cyclopropylpyrazin-2-yl)oxy]-2-{[4-(trifluoromethyl)phenyl]-sulfonyl}octahydropyrrolo[1,2-a]pyrazine], the 50% inhibitory concentration (IC50) was found to be 1460 nM. For `CC(F)(F)c1ccc(S(=O)(=O)N2CCN3C[C@H](Oc4cnc(C5CC5)cn4)C[C@H]3C2)cc1` [Example 100, (7R,8aS)-7-[(5-cyclopropylpyrazin-2-yl)oxy]-2-{[4-(1,1-difluoroethyl)-phenyl]sulfonyl}octahydropyrrolo[1,2-a]pyrazine] the value was 3000 nM.
